Results on 62 sequences are retold here after the supplement of paper PMC10681739.

In all, about 2,700 sequences were measured (“arbitrary fluorescence units”: median about 4,100, highest 2% from about 54,000 on). The list shows a part of the results.

For this assay, the target named is T1, ETS1 (UniProt P14921).
T1 sequence: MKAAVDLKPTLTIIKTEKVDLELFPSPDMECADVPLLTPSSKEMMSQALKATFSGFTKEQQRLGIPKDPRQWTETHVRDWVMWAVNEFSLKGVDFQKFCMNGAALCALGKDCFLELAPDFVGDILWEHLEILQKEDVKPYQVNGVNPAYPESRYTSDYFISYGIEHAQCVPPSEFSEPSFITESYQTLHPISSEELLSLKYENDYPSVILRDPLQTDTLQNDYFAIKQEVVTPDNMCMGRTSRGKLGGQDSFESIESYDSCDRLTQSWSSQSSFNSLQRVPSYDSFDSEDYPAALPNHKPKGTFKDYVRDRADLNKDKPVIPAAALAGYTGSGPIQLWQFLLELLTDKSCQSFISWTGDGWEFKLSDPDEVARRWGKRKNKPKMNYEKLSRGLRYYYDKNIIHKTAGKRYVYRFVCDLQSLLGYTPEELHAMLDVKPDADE
In words: ETS1 binding intensity (PBM fluorescence) (arbitrary fluorescence units); higher = stronger binding. Particulars: ETS1 concentration 10 nM. The method, then: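 gcPBM on wild-type 36-bp genomic probes with two neighbouring ETS1 sites (4-24 bp apart). Recombinant human ETS1 (10 nM) was detected with anti-ETS1 antibody fluorescence. Values are medians over 3 replicate spots. The probes sit in constant array flanks that are not printed.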
For CTCGGGCCGCCCTTCCGCGCTTCCGGGAGGCTTGTC, the ETS1 binding intensity was determined as 5910.
Then CTCAGAAACAGGAAAGGCTGTACTTCCTTTTCACCA, with 2020.
The sequence TCCTTGGTATTTCCTGAGTGATAGGATGTCTTTGTT gave an ETS1 binding intensity of 6420.
The value for CAGCACTTCCTGGACATTTATACACTCATCCTGTAT was 25600; that for CGGCCCCTGCGGCTTCCGGCTTCCTGGCCGTCAAGC was 22000.
The sequence TCCTCCTTCCGCCACAACACGATCACTTCCGGTTGG displayed an ETS1 binding intensity of 25600.
The value for GTTCTCACCACAGGATGATTTTCCTGTTTTCGCCCA was 411.
Consider GCCCTGGCCTTGACTTCCTTTCCTGTCACTTGCGTG, for which the ETS1 binding intensity stood at 2540.
Then GCACTGGCGGAAGTGAGATGCAAGAGGAAGCTCACG, with 7490; and AGATGAAACATCCTTCTCACCACATCCTGTCAAGGT, with 8100; and AAGGTGAGAACGGAACCGTAGCTTCCGCCGGCGGAC, with 1520.
The sequence AGAGAGGGACTTCCGAGTGGGTCTTCCGGTTTTGTG showed an ETS1 binding intensity of 7930.
The value for CAGAAGGTGTTCAGGAAACAGGAAGCTGTCAGCCAG was 2470; that for GGAGGGAGGAAACAGATGGGCCAAGAGGAAGCCACA was 377; that for AATAATCAGTCACTTCCTCGGGAAGTCATTTTCAAT was 826.
The value for GGTCCCCCTGCACTTCCTCATCCGGGGCCCGAGCCA was 3270.
Then TCTCCTCTACAGGAAACCTCATATCCTGTAAGCTAT, with 2440; and TTTTAGGGTATTTCCTGTTTGTTTCCTGCACACACA, with 30800; and CCCCGCAAAACCCGGAAGCCTTCCGCTTCACTCTGG, with 2210.
AGGCACTAGGAAGCAGTTACTCATTTCCTGGAGGTT registered an ETS1 binding intensity of 634.
Then GAACCCTTCCTGCAGGGAGGCCGCCCGGATGCAACA, with 4620; and ATAAAACTACATTTCCCAGTTTCCTTTGCAGTTAGG, with 252.
Then ACGTCTTTTCCTGTCTTCAAGCACAGGAAATCAGTT, with 11000; and CACCAGCTTCCTGTTGCAGAGTTTGGGAAGTGAATC, with 35200; and GGCGAGGAAGTGGGCAGAAGAAGCCGAGGAAGCAGG, with 454.
The value for GAGAAGCGCCTTCCTGTCACCCAGGAAGCTGCAACC was 10200; that for TGAATGCTGTCATTTCCGCTTCCGCCTCCTTCTTTC was 26500.
CGAAGTTTGGCGGAACATGGCGGAAGCGTCTGGGGC came in with an ETS1 binding intensity of 384.
ACAGAGCGTTGCGGAAACTCTTCCTGTGTCCAGGCA had an ETS1 binding intensity of 1900.
In the case of ATCGCTCTCTGTTCCTGTCTACTTCCTGAGCCAAGA, the ETS1 binding intensity amounted to 1290.
CGAAGCGACGGCCCGGAAGGAAGTCGCGTGCTGAGG yielded an ETS1 binding intensity of 1120.
Then GGCGGCGACGGAAGTGAAGTCACTTCCGGGCTGGGG, with 21300.
In turn, CCTCCCTCTTTCCGTAGCGCAGCTTCCTGCCCAGAG showed an ETS1 binding intensity of 3600.
For CAGTTTGCATTTCCTGTTTTCGCTTCCTTATGTGTT, the ETS1 binding intensity came out at 32600.
The value for GAGGCAGGAAAGGCCAGTGGGCAAAACGGAACATGA was 212; that for GCCCTGGCATTCCGGGTCTGTTCTTTCCGCTCTTCG was 296.
The value for CAACTTGTCGGAGCGGAACTTCCGGCGTCCTCCCTG was 22800; that for AATGCACTCATTTCCTGCTCCCGGATGAGCATCAGC was 20600; that for GGACCCTGGCCGCTTCCGTTTCCTCAGATACCTACT was 10900.
In the case of CATGACTGGGGAAATGCATGAAAAGGAAATGATGCA, the ETS1 binding intensity was 192.
As for GCAGAAGGGGCATCCGGGCAGCTTCCTGGTGCACAT, the ETS1 binding intensity turned out to be 9490.
On to AGAAAGGGTTTTTCCTGCCACAGGATATAACTTTTT, for which the ETS1 binding intensity is 2070.
The value for GACTTCATCTACTTCCTGAGTTTCCTTGTGACATTT was 11500.
Sequence CAGCCCGGCCGGATTTGCACTCGGAAGCTGCCGCGG showed an ETS1 binding intensity of 248.
With GCGTTCGCCTGCAGGAAGCGGAAGTAAAAGGGCGGC, the ETS1 binding intensity was found to be 5870.
As to GCCATACACATCCGCGGGAACGCTTCCTCCACCAGC, the ETS1 binding intensity came out at 2500.
The sequence CGCAGAACGTTTCCCTGCAATGCTTCCTCCTGCCGC gave an ETS1 binding intensity of 252.
Then AGGGTAACATGGCGGATGCGGAAGGTAAGGGCTGCA, with 447; and CCCACCTGCTTTCTTCCTGCTTCCTGTGGGTTGCAC, with 5170; and GCCGCGCTTCCGCGATGCGCGGCCCTTCCGCCGGCT, with 9280.
The value for GCACCTACACCTTCCTGCACCTTCCGCTGCAGAACA was 1950.
As for AATACACAGGAAACTACATCTCCCAGGAAGCACCGC, the ETS1 binding intensity came out at 3980.
The value for ATGAACTTCCTGCATAGTCAGAGACAGGAATGACGA was 24800.
Then GCCGTTCACCACTTCCTGTCTTCCTGCGACCCAGTG, with 43900; and GACTCCATTTCCCAGCGTGCCTCAGGAAGGGCGCCA, with 189; and GTTAGGTTAAGGAAGCTTGCCATTTCCCTTTTCAGA, with 439.
Then CTGCCCCGGATGTGCCCCCTGCCCCGGATGTGTCCC, with 9170; and AACTCAGGAAACCACAGGTGCTGGAGAGGATGTGGA, with 336; and CGGCTATGGCAGCGGAAGCCGGAAGCGGCGAGCGGG, with 5440.
In the case of ATCTCATAGCTTCCGCTGAGACATCCTGTCTCAGGG, the ETS1 binding intensity was determined as 12200.
Then CTTTCTTAGACAGGAAGCAAAGGAAACTGGGACAAG, with 4830; and CGCAGCCTCGGCCGGAAACGGAAACGACGCGAACCG, with 8430.
